# Assay results: the supplement of paper PMC8728848
# The other results are listed elsewhere or left out.
# B1: Jacalin (Artocarpus integrifolia) (protein)
# chain: MAYSSLLSLSVLALLFSISSADTRKWFLANGINQNPIGIIEAAVGVSEDLLNLNGMEAKNDEQSGISQTVIVGPWGAKVSTSSNGKAFDDGAFTGIREINLSYNKETAIGDFQVVYDLNGSPYVGQNHKSFITGFTPVKISLDFPSEYIMEVSGYTGNVSGYVVVRSLTFKTNKKTYGPYGVTSGTPFNLPIENGLIVGFKGSIGYWLDYFSMYLSL
# Tests used:
# Assay in all cases: glycan array binding signal (z-score within array); higher = stronger binding
# Settings in all cases: glycan notation: IUPAC condensed, linker removed
# [1] = biological target: Man(a1-2)Man(a1-6)[Man(a1-3)]Man(a1-6)[Man(a1-2)Man(a1-2)Man(a1-3)]Man(b1-4)GlcNAc(b1-4)GlcNAc
# Outline: (§1)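 Negative Z-scores can be read as non-binding. The Z-score is calculated within each array and then averaged across arrays of one protein sequence at different concentrations or buffers and across linkers. Arrays, 3228 in all, were curated from the Consortium for Functional Glycomics database and kept only where the protein sequence was available.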
# [2] = biological target: Man(a1-3)[Man(a1-6)]Man
# Outline: as §1
# [3] = biological target: Man(a1-3)[Man(a1-6)]Man(a1-6)[Man(a1-2)Man(a1-3)]Man(b1-4)GlcNAc(b1-4)GlcNAc
# Outline: as §1
# [4] = biological target: Man(a1-3)[Man(a1-6)]Man(a1-6)[Man(a1-3)]Man
# Outline: as §1
# [5] = biological target: Man(a1-3)[Man(a1-6)]Man(a1-6)[Man(a1-3)]Man(b1-4)GlcNAc(b1-4)GlcNAc
# Outline: as §1
# [6] = biological target: Man(a1-3)[Man(a1-6)]Man(b1-4)GlcNAc(b1-4)GlcNAc
# Outline: as §1
# [7] = biological target: Man(a1-3)[Man(a1-6)]Man(b1-4)GlcNAc(b1-4)[Fuc(a1-6)]GlcNAc
# Outline: as §1
# [8] = biological target: Man(a1-6)Man
# Outline: as §1
# [9] = biological target: Man(b1-4)GlcNAc
# Outline: as §1
# [10] = biological target: MurNAc(b1-4)GlcNAc
# Outline: as §1
# [11] = biological target: Neu5Ac(a2-3)Gal
# Outline: as §1
# [12] = biological target: Neu5Ac(a2-3)Gal(b1-3)GalNAc
# Outline: as §1
# [13] = biological target: Neu5Ac(a2-3)Gal(b1-3)GalNAc(b1-3)Gal(a1-4)Gal(b1-4)Glc
# Outline: as §1
# [14] = biological target: Neu5Ac(a2-3)Gal(b1-3)GalNAc(b1-3)Gal(b1-4)GlcNAc
# Outline: as §1
# [15] = biological target: Neu5Ac(a2-3)Gal(b1-3)GalNAc(b1-4)[Neu5Ac(a2-3)]Gal(b1-4)Glc
# Outline: as §1
# [16] = biological target: Neu5Ac(a2-3)Gal(b1-3)GalNAc(b1-4)[Neu5Ac(a2-8)Neu5Ac(a2-3)]Gal(b1-4)Glc
# Outline: as §1
# [17] = biological target: Neu5Ac(a2-3)Gal(b1-3)GalNAc6S
# Outline: as §1
# [18] = biological target: Neu5Ac(a2-3)Gal(b1-3)GlcNAc
# Outline: as §1
# [19] = biological target: Neu5Ac(a2-3)Gal(b1-3)GlcNAc(b1-2)Man
# Outline: as §1
# [20] = biological target: Neu5Ac(a2-3)Gal(b1-3)GlcNAc(b1-2)Man(a1-3)[GlcNAc(b1-4)][Neu5Ac(a2-3)Gal(b1-3)GlcNAc(b1-2)Man(a1-6)]Man(b1-4)GlcNAc(b1-4)GlcNAc
# Outline: as §1
# [21] = biological target: Neu5Ac(a2-3)Gal(b1-3)GlcNAc(b1-2)Man(a1-3)[Neu5Ac(a2-3)Gal(b1-3)GlcNAc(b1-2)Man(a1-6)]Man(b1-4)GlcNAc(b1-4)GlcNAc
# Outline: as §1
# [22] = biological target: Neu5Ac(a2-3)Gal(b1-3)GlcNAc(b1-3)Gal(b1-3)GlcNAc
# Outline: as §1
# [23] = biological target: Neu5Ac(a2-3)Gal(b1-3)GlcNAc(b1-3)Gal(b1-4)GlcNAc
# Outline: as §1
# [24] = biological target: Neu5Ac(a2-3)Gal(b1-3)GlcNAc(b1-3)GalNAc
# Outline: as §1
# [25] = biological target: Neu5Ac(a2-3)Gal(b1-3)GlcNAc(b1-4)Gal(b1-4)Glc
# Outline: as §1
# [26] = biological target: Neu5Ac(a2-3)Gal(b1-3)GlcNAc(b1-6)GalNAc
# Outline: as §1
# [27] = biological target: Neu5Ac(a2-3)Gal(b1-3)GlcNAc6S
# Outline: as §1
# [28] = biological target: Neu5Ac(a2-3)Gal(b1-3)[Fuc(a1-4)]GlcNAc
# Outline: as §1
# [29] = biological target: Neu5Ac(a2-3)Gal(b1-3)[Fuc(a1-4)]GlcNAc(b1-3)Gal(b1-3)[Fuc(a1-4)]GlcNAc
# Outline: as §1
# [30] = biological target: Neu5Ac(a2-3)Gal(b1-3)[Fuc(a1-4)]GlcNAc(b1-3)Gal(b1-4)[Fuc(a1-3)]GlcNAc
# Outline: as §1
# [31] = biological target: Neu5Ac(a2-3)Gal(b1-3)[GlcNAc(b1-6)]GalNAc
# Outline: as §1
# [32] = biological target: Neu5Ac(a2-3)Gal(b1-3)[Neu5Ac(a2-3)Gal(b1-4)]GlcNAc
# Outline: as §1
# [33] = biological target: Neu5Ac(a2-3)Gal(b1-3)[Neu5Ac(a2-6)]GalNAc
# Outline: as §1
# [34] = biological target: Neu5Ac(a2-3)Gal(b1-3)[Neu5Ac(a2-6)]GlcNAc(b1-3)[Fuc(a1-3)[Gal(b1-4)]GlcNAc(b1-6)]Gal(b1-4)Glc
# Outline: as §1
# [35] = biological target: Neu5Ac(a2-3)Gal(b1-3)]Neu5Ac(a2-3)Gal(b1-4)]GlcNAc
# Outline: as §1
# [36] = biological target: Neu5Ac(a2-3)Gal(b1-4)Glc
# Outline: as §1
# [37] = biological target: Neu5Ac(a2-3)Gal(b1-4)GlcNAc
# Outline: as §1
# [38] = biological target: Neu5Ac(a2-3)Gal(b1-4)GlcNAc(b1-2)Man
# Outline: as §1
# [39] = biological target: Neu5Ac(a2-3)Gal(b1-4)GlcNAc(b1-2)Man(a1-3)[GlcNAc(b1-4)][Neu5Ac(a2-3)Gal(b1-4)GlcNAc(b1-2)Man(a1-6)]Man(b1-4)GlcNAc(b1-4)GlcNAc
# Outline: as §1
# [40] = biological target: Neu5Ac(a2-3)Gal(b1-4)GlcNAc(b1-2)Man(a1-3)[Neu5Ac(a2-3)Gal(b1-4)GlcNAc(b1-2)Man(a1-6)]Man(b1-4)GlcNAc(b1-4)GlcNAc
# Outline: as §1
# [41] = biological target: Neu5Ac(a2-3)Gal(b1-4)GlcNAc(b1-2)Man(a1-3)[Neu5Ac(a2-3)Gal(b1-4)GlcNAc(b1-2)Man(a1-6)]Man(b1-4)GlcNAc(b1-4)[Fuc(a1-6)]GlcNAc
# Outline: as §1
# [42] = biological target: Neu5Ac(a2-3)Gal(b1-4)GlcNAc(b1-2)Man(a1-3)[Neu5Ac(a2-6)Gal(b1-4)GlcNAc(b1-2)Man(a1-6)]Man(b1-4)GlcNAc(b1-4)GlcNAc
# Outline: as §1
# [43] = biological target: Neu5Ac(a2-3)Gal(b1-4)GlcNAc(b1-2)[Neu5Ac(a2-3)Gal(b1-4)GlcNAc(b1-4)]Man(a1-3)[GlcNAc(b1-4)][Neu5Ac(a2-3)Gal(b1-4)GlcNAc(b1-2)[Neu5Ac(a2-3)Gal(b1-4)GlcNAc(b1-6)]Man(a1-6)]Man(b1-4)GlcNAc(b1-4)GlcNAc
# Outline: as §1
# [44] = biological target: Neu5Ac(a2-3)Gal(b1-4)GlcNAc(b1-2)[Neu5Ac(a2-3)Gal(b1-4)GlcNAc(b1-4)]Man(a1-3)[GlcNAc(b1-4)][Neu5Ac(a2-3)Gal(b1-4)GlcNAc(b1-4)Man(a1-6)]Man(b1-4)GlcNAc(b1-4)GlcNAc
# Outline: as §1
# [45] = biological target: Neu5Ac(a2-3)Gal(b1-4)GlcNAc(b1-2)[Neu5Ac(a2-3)Gal(b1-4)GlcNAc(b1-6)]Man(a1-6)[Neu5Ac(a2-3)Gal(b1-4)GlcNAc(b1-2)Man(a1-3)]Man(b1-4)GlcNAc(b1-4)GlcNAc
# Outline: as §1
binder,measurement,setting,value
B1,glycan array binding signal (z-score),[1],-0.296
same,glycan array binding signal (z-score),[2],-0.263
same,glycan array binding signal (z-score),[3],-0.019
same,glycan array binding signal (z-score),[4],-0.207
same,glycan array binding signal (z-score),[5],-0.117
same,glycan array binding signal (z-score),[6],0.035
same,glycan array binding signal (z-score),[7],0.173
same,glycan array binding signal (z-score),[8],-0.21
same,glycan array binding signal (z-score),[9],-0.266
same,glycan array binding signal (z-score),[10],-0.25
same,glycan array binding signal (z-score),[11],-0.253
same,glycan array binding signal (z-score),[12],1.43
same,glycan array binding signal (z-score),[13],-0.183
same,glycan array binding signal (z-score),[14],-0.336
same,glycan array binding signal (z-score),[15],-0.262
same,glycan array binding signal (z-score),[16],-0.262
same,glycan array binding signal (z-score),[17],-0.267
same,glycan array binding signal (z-score),[18],-0.259
same,glycan array binding signal (z-score),[19],-0.194
same,glycan array binding signal (z-score),[20],-0.268
same,glycan array binding signal (z-score),[21],-0.209
same,glycan array binding signal (z-score),[22],-0.279
same,glycan array binding signal (z-score),[23],-0.274
same,glycan array binding signal (z-score),[24],1.07
same,glycan array binding signal (z-score),[25],-0.223
same,glycan array binding signal (z-score),[26],-0.282
same,glycan array binding signal (z-score),[27],-0.214
same,glycan array binding signal (z-score),[28],-0.286
same,glycan array binding signal (z-score),[29],-0.221
same,glycan array binding signal (z-score),[30],-0.255
same,glycan array binding signal (z-score),[31],-0.27
same,glycan array binding signal (z-score),[32],-0.353
same,glycan array binding signal (z-score),[33],-0.101
same,glycan array binding signal (z-score),[34],-0.275
same,glycan array binding signal (z-score),[35],-0.263
same,glycan array binding signal (z-score),[36],-0.236
same,glycan array binding signal (z-score),[37],-0.255
same,glycan array binding signal (z-score),[38],-0.183
same,glycan array binding signal (z-score),[39],-0.281
same,glycan array binding signal (z-score),[40],-0.26
same,glycan array binding signal (z-score),[41],0.007
same,glycan array binding signal (z-score),[42],-0.249
same,glycan array binding signal (z-score),[43],-0.264
same,glycan array binding signal (z-score),[44],-0.283
same,glycan array binding signal (z-score),[45],-0.209
